From US9809623B2, “α4β7 peptide monomer and dimer antagonists” (Protagonist Therapeutics, Inc., priority 2014, dated 2017)
Where two headings read alike, the source gives them in different places. At least one peptide structure holds a part that was inferred or is arguable (an end, a ring closure or a residue). At least one structure is not confirmed: it was looked up by name or label, or the drawing left a doubt. Bridge positions count the residues as written; N and C are the ends. Square brackets hold non-standard residues; d marks the D form. Peptide text beside a SMILES is read from it. 2Nal = N[C@@H](Cc1ccc2ccccc2c1)C(=O)O; NMeR = CN[C@@H](CCCNC(=N)N)C(=O)O; Pen = CC(C)(S)[C@H](N)C(=O)O

How the values were obtained:
[1] = target: T1, rh integrin α4β7 (Homo sapiens, UniProt P13612+P26010); test: α4β7-MAdCAM Competition ELISA; assay type: binding; conditions: Table 3-B, read-out: α4β7 ELISA IC50
T1 construct: purchased R&D Systems 5397-A30
Method: A nickel coated plate (Pierce #15442) was coated with rh integrin α4β7 (R&D Systems #5397-A30) at 800 ng/well and incubated at room temperature with shaking for 1 hr. The solution was then removed by shaking and blocked with assay buffer (50 mM Tris-HCl pH7.6, 150 mM NaCl, 1 mM MnCl2 or MgCl2, 0.05% Tween-20 and 0.5% BSA) at 250 ul/well. The plate was then incubated at room temperature for 1 hr. Each well was washed 3 times with wash buffer (50 mM Tris-HCl pH7.6, 100 mM NaCl, 1 mM MnCl2 or MgCl2, 0.05% Tween-20). To each well was added 25 ul of a serial dilution (3-fold dilutions in assay buffer) of peptide starting at 20 μM. 25 ul of recombinant human MAdCAM-1 (R&D Systems #6056-MC) was then added to each well at a fixed concentration 20 nM. The final starting peptide concentration was 10 μM, and the final MAdCAM-1 concentration was 10 nM. The plates were then incubated at room temperature for 1 hr to reach binding equilibrium. The wells were then washed three times with wash buffer. 50 ul of mouse anti-human IgG1-HRP (Invitrogen # A10648) diluted in 1:2000 in assay buffer was then added to each well. The wells were incubated at room temperature for 45 min with shaking. The wells were then washed 3 times with wash buffer. 100 ul of 3,3′,5,5′-Tetramethylbenzidine (TMB) were then added to each well and closely observe during development time. The reaction was stopped with 2N H2SO4 and absorbance was read at 450 nm.
TMB is a chromogenic substrate suitable for use in ELISA procedures, which utilize horseradish peroxidase conjugates. This substrate produces a soluble end product that is blue in color and can be read spectrophotometrically at 370 or 655 nm. The reaction maybe stopped with 2 M H2S04, resulting in a yellow solution that is read at 450 nm. Each tablet contains 1 mg of TMB substrate. To prepare TMB Substrate Solution, dissolve one 3,3′,5,5′-tetramethylbenzidine tablet in 1 ml of DMSO and add to 9 ml of 0.05 M Phosphate-Citrate Buffer, pH 5.0. Add 2 μl of fresh 30% hydrogen peroxide (Product No. H 1009) per 10 ml of substrate buffer solution, immediately prior to use.

[2] = target: α4β7 (Homo sapiens, UniProt P13612+P26010); test: α4β7-MAdCAM Cell Adhesion Assay (RPMI 8866 human cells); assay type: cell-based; design: host or cells: RPMI 8866 human B lymphoblastoid cells; conditions: Table 3-B, Potency (α4β7); range classes; read-out: α4β7 cell (Hu) IC50
Method: RPMI 8866 human cells (Sigma #95041316) were cultured in RPMI 1640 HEPES medium (Invitrogen #22400-089) supplemented with 10% serum (Fetal Bovine Serum, Invitrogen #16140-071), 1 mM sodium pyruvate (Invitrogen #11360-070), 2 mM L-glutamine (Invitrogen #25030-081) and Penicillin-Streptomycin (Invitrogen #15140-122) at 100 units of penicillin and 100 μg of streptomycin per ml. The cells were washed two times in DMEM medium (ATCC #30-2002) supplemented with 0.1% BSA, 10 mM HEPES pH 7 and 1 mM MnCl2. The cells were re-suspended in supplemented DMEM medium at a density of 4×10^6 cells/ml.
A Nunc MaxiSorp plate was coated with rh MAdCAM-1/Fc Chimera (R&D #6065-MC) at 200 ng per well in 50 ul per well in 1×PBS and incubated at 4° C. overnight. The solution was then removed by shaking, blocked with 250 ul per well PBS containing 1% BSA, and incubated at 37° C. for 1 hr. The solution was removed by shaking. Peptides were diluted by serial dilution in a final volume of 50 ul per well (2× concentration). To each well, 50 ul of cells (200,000 cells) were added and the plate was incubated at 37° C., 5% CO2 for 30-45 min to allow cell adhesion. The wells were washed manually three times (100 ul per wash) with supplemented DMEM. After the final wash, 100 ul/well of supplemented DMEM and 10 ul/well of MTT reagent (ATTC cat#30-1010K) were added. The plate was incubated at 37° C., 5% CO2 for 2-3 hrs until a purple precipitate was visible. 100 ul of Detergent Reagent (ATTC cat#30-1010K) was added to each well. The plate was covered from the light, wrapped in Parafilm to prevent evaporation, and left overnight at room temperature in the dark. The plate was shaken for 5 min and the absorbance at 570 nm was measured. To calculate the dose response, the absorbance value of control wells not containing cells was subtracted from each test well.

T1 sequence (P13612 34-977 limits assumed): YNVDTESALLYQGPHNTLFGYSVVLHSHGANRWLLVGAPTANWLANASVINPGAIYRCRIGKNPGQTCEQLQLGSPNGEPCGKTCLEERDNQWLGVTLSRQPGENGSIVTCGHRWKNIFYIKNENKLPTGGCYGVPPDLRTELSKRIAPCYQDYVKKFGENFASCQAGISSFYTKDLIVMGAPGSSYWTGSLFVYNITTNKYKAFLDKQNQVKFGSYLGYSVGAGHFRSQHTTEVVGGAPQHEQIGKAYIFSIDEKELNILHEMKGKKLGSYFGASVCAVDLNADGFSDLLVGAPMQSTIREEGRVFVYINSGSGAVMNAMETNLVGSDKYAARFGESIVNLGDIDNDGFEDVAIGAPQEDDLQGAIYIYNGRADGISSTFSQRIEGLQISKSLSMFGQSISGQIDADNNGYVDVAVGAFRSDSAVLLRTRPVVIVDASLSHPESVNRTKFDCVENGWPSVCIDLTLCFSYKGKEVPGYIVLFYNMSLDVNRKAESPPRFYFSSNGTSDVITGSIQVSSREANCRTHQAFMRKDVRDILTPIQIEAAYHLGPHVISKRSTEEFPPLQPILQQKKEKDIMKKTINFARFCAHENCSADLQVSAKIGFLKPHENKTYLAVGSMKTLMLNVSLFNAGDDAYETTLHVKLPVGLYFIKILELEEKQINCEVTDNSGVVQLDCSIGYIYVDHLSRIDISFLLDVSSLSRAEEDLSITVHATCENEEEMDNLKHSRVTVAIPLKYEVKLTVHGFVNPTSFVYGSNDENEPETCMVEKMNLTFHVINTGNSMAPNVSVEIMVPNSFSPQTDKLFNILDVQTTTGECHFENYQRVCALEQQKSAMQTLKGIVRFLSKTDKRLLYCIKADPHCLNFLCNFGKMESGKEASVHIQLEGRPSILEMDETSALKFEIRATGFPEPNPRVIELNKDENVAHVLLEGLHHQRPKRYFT
T1 sequence (P26010 20-723 limits assumed): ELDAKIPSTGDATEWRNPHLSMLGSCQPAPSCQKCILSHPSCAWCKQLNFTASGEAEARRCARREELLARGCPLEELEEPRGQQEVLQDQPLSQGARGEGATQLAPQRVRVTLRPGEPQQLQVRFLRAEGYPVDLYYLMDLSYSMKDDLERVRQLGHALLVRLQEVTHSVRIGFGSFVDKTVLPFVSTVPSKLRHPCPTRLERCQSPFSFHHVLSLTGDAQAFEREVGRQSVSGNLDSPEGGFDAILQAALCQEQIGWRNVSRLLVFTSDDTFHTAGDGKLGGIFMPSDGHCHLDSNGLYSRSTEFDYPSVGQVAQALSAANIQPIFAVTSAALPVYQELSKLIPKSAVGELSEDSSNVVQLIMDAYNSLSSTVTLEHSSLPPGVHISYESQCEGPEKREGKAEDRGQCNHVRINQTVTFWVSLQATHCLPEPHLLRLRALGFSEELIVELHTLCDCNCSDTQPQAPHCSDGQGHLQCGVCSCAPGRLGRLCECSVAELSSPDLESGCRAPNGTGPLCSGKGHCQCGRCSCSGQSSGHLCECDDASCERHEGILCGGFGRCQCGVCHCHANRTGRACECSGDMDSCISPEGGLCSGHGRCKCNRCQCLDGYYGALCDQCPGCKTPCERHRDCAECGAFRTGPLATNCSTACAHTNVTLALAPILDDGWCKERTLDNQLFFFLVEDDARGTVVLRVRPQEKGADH
α4β7, sequence (P13612 34-1032): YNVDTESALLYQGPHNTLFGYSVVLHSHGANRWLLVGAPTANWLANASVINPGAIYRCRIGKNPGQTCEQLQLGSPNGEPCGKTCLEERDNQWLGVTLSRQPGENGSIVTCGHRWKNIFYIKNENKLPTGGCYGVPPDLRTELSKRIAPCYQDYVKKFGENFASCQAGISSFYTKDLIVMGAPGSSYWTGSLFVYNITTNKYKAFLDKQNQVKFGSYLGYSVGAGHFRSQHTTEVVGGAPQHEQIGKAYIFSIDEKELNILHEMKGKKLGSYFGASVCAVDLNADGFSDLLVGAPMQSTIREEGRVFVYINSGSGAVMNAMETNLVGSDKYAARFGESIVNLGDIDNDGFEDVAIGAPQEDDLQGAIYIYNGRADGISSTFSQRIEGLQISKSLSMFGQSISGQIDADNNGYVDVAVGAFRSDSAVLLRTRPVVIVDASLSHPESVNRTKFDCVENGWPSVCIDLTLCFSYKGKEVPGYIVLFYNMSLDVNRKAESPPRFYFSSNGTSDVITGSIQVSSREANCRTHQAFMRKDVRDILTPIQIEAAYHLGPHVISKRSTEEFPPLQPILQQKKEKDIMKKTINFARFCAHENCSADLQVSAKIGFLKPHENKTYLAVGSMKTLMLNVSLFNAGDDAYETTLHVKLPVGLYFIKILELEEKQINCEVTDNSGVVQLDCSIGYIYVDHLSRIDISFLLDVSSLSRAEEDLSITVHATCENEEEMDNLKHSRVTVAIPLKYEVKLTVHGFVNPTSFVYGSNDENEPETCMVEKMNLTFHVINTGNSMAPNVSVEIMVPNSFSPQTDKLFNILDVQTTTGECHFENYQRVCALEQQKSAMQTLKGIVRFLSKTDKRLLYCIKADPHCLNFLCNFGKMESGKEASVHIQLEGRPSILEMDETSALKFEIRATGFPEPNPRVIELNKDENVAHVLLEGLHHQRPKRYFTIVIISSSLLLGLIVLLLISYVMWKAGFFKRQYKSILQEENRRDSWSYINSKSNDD
α4β7, sequence (P26010 20-798): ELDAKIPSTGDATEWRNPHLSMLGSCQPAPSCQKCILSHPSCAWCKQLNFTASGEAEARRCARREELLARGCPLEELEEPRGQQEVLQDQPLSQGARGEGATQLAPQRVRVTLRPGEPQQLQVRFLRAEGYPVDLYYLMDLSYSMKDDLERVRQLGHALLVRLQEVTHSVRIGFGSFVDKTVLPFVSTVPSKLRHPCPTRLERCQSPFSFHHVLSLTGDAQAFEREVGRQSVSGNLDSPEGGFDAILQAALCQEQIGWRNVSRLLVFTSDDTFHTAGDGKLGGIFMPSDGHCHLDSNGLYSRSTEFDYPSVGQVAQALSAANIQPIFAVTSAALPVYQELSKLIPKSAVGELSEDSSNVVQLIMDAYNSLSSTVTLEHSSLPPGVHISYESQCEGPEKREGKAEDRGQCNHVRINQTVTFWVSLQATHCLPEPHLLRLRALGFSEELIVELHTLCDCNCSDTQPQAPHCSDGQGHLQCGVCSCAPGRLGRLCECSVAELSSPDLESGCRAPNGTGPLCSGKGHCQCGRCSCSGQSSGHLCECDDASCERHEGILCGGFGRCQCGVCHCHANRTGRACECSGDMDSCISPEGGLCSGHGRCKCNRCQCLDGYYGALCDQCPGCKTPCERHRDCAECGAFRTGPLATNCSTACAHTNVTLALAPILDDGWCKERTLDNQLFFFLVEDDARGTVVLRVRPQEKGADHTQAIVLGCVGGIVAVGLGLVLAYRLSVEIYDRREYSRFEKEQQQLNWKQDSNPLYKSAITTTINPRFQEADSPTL

SMILES	IC50 ([1]; Potency (α4β7), range classes)	IC50 ([1]; cells with plain numbers)	IC50 [2]
CC(=O)N[C@@H]1C(=O)N(C)[C@@H](CCCNC(=N)N)C(=O)N[C@@H](CO)C(=O)N[C@@H](CC(=O)O)C(=O)N[C@@H]([C@@H](C)O)C(=O)N[C@@H](CC(C)C)C(=O)N[C@H](C(=O)N[C@@H](Cc2ccc(C(C)(C)C)cc2)C(=O)N[C@@H](CCC(=O)O)CC(=O)N[C@H](CCCCNC(=O)CN(CC(=O)NCCCC[C@@H](NC(=O)C[C@H](CCC(=O)O)NC(=O)[C@H](Cc2ccc(C(C)(C)C)cc2)NC(=O)[C@H]2NC(=O)[C@H](CC(C)C)NC(=O)[C@H]([C@@H](C)O)NC(=O)[C@H](CC(=O)O)NC(=O)[C@H](CO)NC(=O)[C@H](CCCNC(=N)N)N(C)C(=O)[C@@H](NC(C)=O)C(C)(C)SSC2(C)C)C(N)=O)C(=O)CCNC(=O)CCCCCC2(C)C(=CC=CC=CC3=[N+](CCCS(=O)(=O)[O-])c4ccc(S(=O)(=O)O)cc4C3(C)C)N(CCCS(=O)(=O)O)c3ccc(S(=O)(=O)O)cc32)C(N)=O)C(C)(C)SSC1(C)C (single isomer, unassigned) [compound 183]	< 0.01 µM		
CC(C)C[C@@H]1NC(=O)[C@H]([C@@H](C)O)NC(=O)[C@H](CC(=O)O)NC(=O)[C@H](CO)NC(=O)[C@H](CCCNC(=N)N)N(C)C(=O)[C@H]2NC(=O)[C@H](CCC(=O)O)NC(=O)[C@H](Cc3ccc4ccccc4c3)NC(=O)[C@@H](NC1=O)C(C)(C)SSC2(C)C [compound 143] (cyclo([Pen][NMeR]SDTL[Pen][2Nal]E); disulfide 1-7 (inferred); ring closure inferred)		0.25 µM	10 to 100 µM
CC(C)C[C@@H]1NC(=O)[C@H]([C@@H](C)O)NC(=O)[C@H](CC(=O)O)NC(=O)[C@H](CO)NC(=O)[C@H](CCCNC(=N)N)N(C)C(=O)[C@H]2NC(=O)[C@H](CCC(=O)O)NC(=O)[C@H](Cc3c[nH]c4ccccc34)NC(=O)[C@@H](NC1=O)C(C)(C)SSC2(C)C [compound 144] (cyclo([Pen][NMeR]SDTL[Pen]WE); disulfide 1-7 (inferred); ring closure inferred)		0.364 µM	10 to 100 µM
CC(C)C[C@@H]1NC(=O)[C@H]([C@@H](C)O)NC(=O)[C@H](CC(=O)O)NC(=O)[C@H](CO)NC(=O)[C@H](CCCNC(=N)N)N(C)C(=O)[C@H]2NC(=O)[C@@H](CCC(=O)O)NC(=O)[C@H](Cc3c[nH]c4ccccc34)NC(=O)[C@@H](NC1=O)C(C)(C)SSC2(C)C [compound 145] (cyclo([Pen][NMeR]SDTL[Pen]W[dE]); disulfide 1-7 (inferred); ring closure inferred)		0.504 µM	10 to 100 µM
CC[C@H](C)[C@@H]1NC(=O)[C@H](CC(=O)O)NC(=O)[C@H](CO)NC(=O)[C@H](CCCNC(=N)N)N(C)C(=O)[C@@H](NC(C)=O)C(C)(C)SSC(C)(C)[C@@H](C(=O)N[C@@H](Cc2ccc(C(C)(C)C)cc2)C(=O)N[C@@H](CCC(=O)O)CC(=O)N[C@H](CCCCNC(=O)CN(CC(=O)NCCCC[C@@H](NC(=O)C[C@H](CCC(=O)O)NC(=O)[C@H](Cc2ccc(C(C)(C)C)cc2)NC(=O)[C@H]2NC(=O)[C@H](CC(C)C)NC(=O)[C@H]([C@@H](C)CC)NC(=O)[C@H](CC(=O)O)NC(=O)[C@H](CO)NC(=O)[C@H](CCCNC(=N)N)N(C)C(=O)[C@@H](NC(C)=O)C(C)(C)SSC2(C)C)C(N)=O)C(=O)CCNC(=O)CCCCCC2(C)C(=CC=CC=CC3=[N+](CCCS(=O)(=O)[O-])c4ccc(S(=O)(=O)O)cc4C3(C)C)N(CCCS(=O)(=O)O)c3ccc(S(=O)(=O)O)cc32)C(N)=O)NC(=O)[C@H](CC(C)C)NC1=O (stereo partly shown) [compound 188]			< 0.01 µM
CC[C@H](C)[C@@H]1NC(=O)[C@H](CCC(N)=O)NC(=O)[C@H](CO)NC(=O)[C@H](CCCNC(=N)N)N(C)C(=O)[C@@H](NC(C)=O)C(C)(C)SSC(C)(C)[C@@H](C(=O)N[C@@H](Cc2ccc(C(C)(C)C)cc2)C(=O)N[C@@H](CCC(=O)O)CC(=O)N[C@H](CCCCNC(=O)CN(CC(=O)NCCCC[C@@H](NC(=O)C[C@H](CCC(=O)O)NC(=O)[C@H](Cc2ccc(C(C)(C)C)cc2)NC(=O)[C@H]2NC(=O)[C@H](CCC(N)=O)NC(=O)[C@H]([C@@H](C)CC)NC(=O)[C@H](CCC(N)=O)NC(=O)[C@H](CO)NC(=O)[C@H](CCCNC(=N)N)N(C)C(=O)[C@@H](NC(C)=O)C(C)(C)SSC2(C)C)C(N)=O)C(=O)CCNC(=O)CCCCCC2(C)C(=CC=CC=CC3=[N+](CCCS(=O)(=O)[O-])c4ccc(S(=O)(=O)O)cc4C3(C)C)N(CCCS(=O)(=O)O)c3ccc(S(=O)(=O)O)cc32)C(N)=O)NC(=O)[C@H](CCC(N)=O)NC1=O (stereo partly shown) [compound 192]			10 to 100 µM
CC(=O)N[C@@H]1C(=O)N(C)[C@@H](CCCNC(=N)N)C(=O)N[C@@H](CO)C(=O)N[C@@H](CC(=O)O)C(=O)N[C@@H](CC(=O)O)C(=O)N[C@@H](CC(C)C)C(=O)N[C@H](C(=O)N[C@@H](Cc2ccc(C(C)(C)C)cc2)C(=O)N[C@@H](CCC(=O)O)CC(=O)N[C@H](CCCCNC(=O)CN(CC(=O)NCCCC[C@@H](NC(=O)C[C@H](CCC(=O)O)NC(=O)[C@H](Cc2ccc(C(C)(C)C)cc2)NC(=O)[C@H]2NC(=O)[C@H](CC(C)C)NC(=O)[C@H](CC(=O)O)NC(=O)[C@H](CC(=O)O)NC(=O)[C@H](CO)NC(=O)[C@H](CCCNC(=N)N)N(C)C(=O)[C@@H](NC(C)=O)C(C)(C)SSC2(C)C)C(N)=O)C(=O)CCNC(=O)CCCCCC2(C)C(=CC=CC=CC3=[N+](CCCS(=O)(=O)[O-])c4ccc(S(=O)(=O)O)cc4C3(C)C)N(CCCS(=O)(=O)O)c3ccc(S(=O)(=O)O)cc32)C(N)=O)C(C)(C)SSC1(C)C (stereo partly shown) [compound 193]			> 100 µM
